Results as given in PubChem BioAssay AID652106 (National Center for Advancing Translational Sciences (NCATS), 2013).
Screen size: about 370,000 compounds; about 500 (0.14%) were called active. The inconclusive results got no clear call from the source; some entries with a clear call stand among them for comparison. Calls come from the whole dose curve; as a rule, active = well fitted activation curve with a large enough effect; inconclusive = small, poorly fitted or top-dose-only effect; inactive = no such curve, though single readings can be large or run the other way. No potency is given beside an inconclusive call; the fits are too rough.

assay: qHTS of alpha-syn Inhibitors; conditions: Yeast expressing alpha-synuclein, BacTiter-Glo, 24 h; Potency: growth rescue unless noted; growth rescue (activation): at 46.1 µM (top of the series) unless noted; note: nearly all actives have a fitted effect of over 65% in size; for growth rescue (activation): % of control where 0% means no effect
How it was run: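 Galactose-induced alpha-syn yeast (OD600=0.02, raffinose-pregrown) + pinned cpd, 24 hr, 30 deg C; growth by BacTiter-Glo luminescence. Growth restoration scores as activation.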
Potency is the fitted concentration of half-maximal effect; tags give direction and shape of the fitted curve.

Compound	growth rescue (activation)	Potency
Cc1ccc(Nc2nc(CSc3nnnn3C)cs2)cc1	inactive: -0.22%	–
COC(=O)c1cc([N+](=O)[O-])c(C)c(C)n1	–	inconclusive [activator, single point]
C[C@H]1CN([C@@H](C)CO)C(=O)CCCn2cc(nn2)CO[C@@H]1CN(C)C(=O)Nc1ccc(N2CCCCC2)cc1	–	inconclusive [activator, single point]
Cc1nn(Cc2ccccc2)c(Cl)c1/C=N/NC(=O)c1cccnc1	–	inconclusive [activator, single point]
CC1Cc2ccccc2N1C(=S)NC(=O)c1cccc(Br)c1 (centres undefined)	–	inconclusive [activator, partial curve]
COc1ccc(-c2nc(C)c(CCNS(=O)(=O)c3cc(Cl)ccc3Cl)s2)cc1	–	inconclusive [activator, single point]
CC(C)CC(NS(=O)(=O)c1ccccc1)C(=O)O (centres undefined)	inactive: 8.21%	–
COC(=O)c1[nH]nc2c1C(=O)N(C1CCCCC1)C2=O	inactive: -1.63%	–
COc1ccc(OC)c(NC(=O)CN2c3cccc4cccc(c34)S2(=O)=O)c1	–	inconclusive [activator, single point]
O=C(O)c1ccccc1C(=O)Nc1ccc(Oc2ccc3ccccc3c2)cc1	–	inconclusive [activator, single point]
COC(=O)C1=C(C)NC(C)=C(C(=O)OC)C1c1ccccc1OCc1c(C)no[n+]1[O-]	–	inconclusive [activator, single point]
O=C(Nc1cc(C(F)(F)F)ccc1N1CCCC1)c1ccc2c(c1)OCO2	inactive: -16.5%	–
c1ccc(-n2c(SCC3CCCCO3)nnc2-c2cccs2)cc1 (centres undefined)	–	inconclusive [activator, single point]
CCOc1ccc(C(=O)NC(=S)Nc2ccccc2N2CCCCC2)cc1[N+](=O)[O-]	inactive: -2.06%	–
CC1CCN(S(=O)(=O)c2ccc3c(ccc(=O)n3CC(=O)Nc3cccc(F)c3)c2)CC1	–	inconclusive [activator, single point]
CCOC(=O)C1(Cc2ccc(OC)cc2)CCN(C(=O)Cc2cccnc2)CC1	–	inconclusive [activator, single point]
CCNc1nc(NCC)n2c(SC(C(=O)Nc3cc(C)ccc3C)c3ccccc3)nnc2n1 (centres undefined)	inactive: -4.27%	–
Cc1nn(CC(=O)OCCOc2ccc(Br)cc2)c(C)c1[N+](=O)[O-]	inactive: 5.95%	–
CN(C)c1ccc(/C=C/c2cc(=O)[nH]c3ccccc23)cc1	inactive: 2.98%	–
O=C(C[C@H]1CC[C@@H]2[C@H](COC[C@@H](O)CN2Cc2ccc(Cl)cc2)O1)NCCc1ccccc1	–	inconclusive [activator, single point]
COc1ccc2nccc(/C=C/c3ccc(N(C)C)cc3)c2c1	inactive: -26.4%	–
COC(C#CCCN(C)C)(c1ccccc1)c1ccccc1	–	inconclusive [activator, single point]

Compound	growth rescue (activation)	Potency
COc1ccc2oc(-c3ccncc3)cc(=O)c2c1	–	inconclusive [activator, single point]
O=C(Nc1cccc(-c2nc3ncccc3o2)c1)c1ccccc1	inactive: -0.309%	–
CC(OC(=O)CN(C)S(=O)(=O)c1ccc(Cl)cc1)C(=O)Nc1cccc(Cl)c1 (centres undefined)	–	inconclusive [activator, single point]
COc1ccc2ncc(S(=O)(=O)c3ccccc3)c(N3CCN(c4ccccc4)CC3)c2c1	–	inconclusive [activator, single point]
COc1cccc(-c2nc(C(=O)NCC3CCCO3)cc3c2[nH]c2ccccc23)c1 (centres undefined)	–	inconclusive [activator, single point]
O=C(C1CC(c2ccccc2O)=NO1)N1CCc2ccccc2C1 (centres undefined)	–	inconclusive [activator, single point]
CCOc1ccc(OCCC(=O)NNC(=O)c2nn(C)c(=O)c3ccccc23)cc1	inactive: 9.34%	–
COC(=O)C(C)N1C(=O)S/C(=C\c2ccc(-c3ccc(C(=O)O)cc3C)o2)C1=O (centres undefined)	–	inconclusive [activator, partial curve]
COc1cccc(NC2=NCCCCC2)c1	inactive: 1.73%	–
CC1(C(=O)NCc2ccccc2Br)CCN1C(=O)Cc1ccc(-c2ccccc2)cc1 (centres undefined)	–	inconclusive [activator, single point]
COC(=O)C1=CN(c2c(C)cc(C)cc2C)C(N)=C(C#N)C1c1cccc(F)c1 (centres undefined)	–	inconclusive [activator, single point]
COc1cc(OC)cc(C(=O)NCC(=O)NCCN2C(=O)S/C(=C\c3ccc4c(c3)OCO4)C2=O)c1	–	inconclusive [activator, single point]
COc1ccccc1CC1(C)C(=O)Nc2c(Cl)cccc21 (centres undefined)	–	inconclusive [activator, single point]
Cc1nc(Oc2ccc(S(=O)(=O)N3CCOCC3)cc2Cl)c2c3c(sc2n1)CCCC3	–	inconclusive [activator, partial curve]
CC(=O)N(CN1C(=O)c2ccc([N+](=O)[O-])cc2C1=O)c1cccc(C(=O)O)c1	–	inconclusive [activator, single point]
O=[N+]([O-])c1ccc2c(c1)S(=O)(=O)C=C2	inactive: -42.3%	–
COc1ccc2[nH]c3c(c2c1)CCN1C(=O)C(CC(=O)NCCCN(C)C)C[C@H](C(=O)N2CCCCC2)[C@@]31C (some centres undefined)	–	inconclusive [activator, single point]
Clc1cccc(CSc2ccc(-c3cccnc3)nn2)c1	–	inconclusive [activator, single point]
Cc1nn(CC(=O)Nc2ccccn2)c(C)c1Br	inactive: 6.04%	–
COc1cc(NCc2ccccc2O)c2ncccc2c1	–	inconclusive [activator, single point]
COc1ccccc1/C=C/c1cnccn1	–	inconclusive [activator, single point]
O=C1/C(=C/c2ccc(F)cc2)SC(=S)N1CC(=O)N1CCCCC1c1cccnc1 (centres undefined)	–	inconclusive [activator, single point]
